Reference: patent US20200207836A1 (MONASH UNIVERSITY, published 2020)

Tests used:
Test in all cases: Receptor-HIT BRET, HEK293FT cells
CXCR3 (not BRET-tagged) = molecular target: T1, CXCR3 (not BRET-tagged) (UniProt P49682 1-368, limits assumed)
T1 construct: whole, on cells
T1 sequence (looked up): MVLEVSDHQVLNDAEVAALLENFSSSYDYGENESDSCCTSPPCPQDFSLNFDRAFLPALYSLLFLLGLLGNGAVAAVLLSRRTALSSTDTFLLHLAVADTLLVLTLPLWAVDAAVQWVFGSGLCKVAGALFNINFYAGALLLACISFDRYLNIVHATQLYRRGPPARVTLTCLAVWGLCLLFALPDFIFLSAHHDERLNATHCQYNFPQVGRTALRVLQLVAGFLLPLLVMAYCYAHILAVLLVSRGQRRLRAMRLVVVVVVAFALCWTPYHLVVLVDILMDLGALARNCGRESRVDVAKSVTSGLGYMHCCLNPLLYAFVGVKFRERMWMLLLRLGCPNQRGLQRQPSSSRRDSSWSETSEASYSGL

CCR10 (not BRET-tagged) = molecular target: T2, CCR10 (not BRET-tagged) (UniProt P46092 1-362, limits assumed)
T2 construct: whole, on cells
T2 sequence (looked up): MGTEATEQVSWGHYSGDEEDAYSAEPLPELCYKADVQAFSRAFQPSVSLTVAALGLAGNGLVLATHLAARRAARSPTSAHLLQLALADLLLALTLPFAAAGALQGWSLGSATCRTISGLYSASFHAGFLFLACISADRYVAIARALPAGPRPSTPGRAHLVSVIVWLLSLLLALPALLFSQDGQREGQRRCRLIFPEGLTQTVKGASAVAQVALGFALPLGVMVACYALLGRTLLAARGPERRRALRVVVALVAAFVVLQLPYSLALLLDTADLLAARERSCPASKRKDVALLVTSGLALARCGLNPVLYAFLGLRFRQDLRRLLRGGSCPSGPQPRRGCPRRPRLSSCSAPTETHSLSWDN

untagged CCR4 = molecular target: T3, untagged CCR4 (human, UniProt P51679 1-360)
T3 construct: Not BRET-tagged
T3 sequence: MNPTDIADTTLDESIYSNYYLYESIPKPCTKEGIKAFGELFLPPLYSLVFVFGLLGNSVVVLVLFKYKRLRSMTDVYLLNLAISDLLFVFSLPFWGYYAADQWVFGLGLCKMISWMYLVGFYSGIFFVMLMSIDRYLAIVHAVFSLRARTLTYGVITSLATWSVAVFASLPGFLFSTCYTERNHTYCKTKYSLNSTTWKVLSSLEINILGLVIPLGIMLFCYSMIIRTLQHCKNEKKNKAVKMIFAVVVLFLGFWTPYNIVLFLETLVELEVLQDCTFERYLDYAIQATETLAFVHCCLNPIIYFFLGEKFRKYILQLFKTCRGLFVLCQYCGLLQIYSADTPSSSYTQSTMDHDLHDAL

Measured: binding result

B1: RAGE/Rluc8 (receptor)
chain: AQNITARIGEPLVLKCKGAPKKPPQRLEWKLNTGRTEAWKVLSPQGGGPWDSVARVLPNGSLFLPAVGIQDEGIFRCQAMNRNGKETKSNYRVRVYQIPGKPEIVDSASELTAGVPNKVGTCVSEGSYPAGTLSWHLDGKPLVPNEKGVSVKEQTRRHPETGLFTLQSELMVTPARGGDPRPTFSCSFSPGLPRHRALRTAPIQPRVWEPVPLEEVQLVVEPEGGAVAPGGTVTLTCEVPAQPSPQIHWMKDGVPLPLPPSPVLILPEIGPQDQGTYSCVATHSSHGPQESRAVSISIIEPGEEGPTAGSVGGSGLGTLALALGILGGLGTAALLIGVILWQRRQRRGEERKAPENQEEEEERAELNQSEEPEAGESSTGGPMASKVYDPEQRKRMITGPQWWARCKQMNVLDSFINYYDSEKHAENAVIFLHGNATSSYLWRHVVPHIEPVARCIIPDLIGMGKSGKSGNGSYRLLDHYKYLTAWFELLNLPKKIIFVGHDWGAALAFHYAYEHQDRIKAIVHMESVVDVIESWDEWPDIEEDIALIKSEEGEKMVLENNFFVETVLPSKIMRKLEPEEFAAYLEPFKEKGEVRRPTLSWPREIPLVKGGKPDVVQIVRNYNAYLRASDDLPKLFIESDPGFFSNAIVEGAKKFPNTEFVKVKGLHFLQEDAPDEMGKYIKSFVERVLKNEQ
notes: also called Rluc8-labelled RAGE; Rluc8-tagged RAGE
no binding: all assays above
